Laboratory results: the antibiotic and cytotoxicity screens of Wong et al. (2023)
Some of the results follow.

These compounds were tested on HSkMC (human skeletal muscle cells) (assay: cytotoxicity call (relative viability < 0.9)). Conditions: 10 µM.

| Compound | cytotoxicity call |
| --- | --- |
| C[C@H]1CN([C@@H](C)CO)C(=O)CCCn2cc(nn2)CO[C@H]1CN(C)Cc1ccc2c(c1)OCCN2C | inactive |
| Cc1ccc(S(=O)(=O)N(C)C[C@H]2OCCCC[C@H](C)Oc3ccc(NC(=O)Nc4cccc5ccccc45)cc3C(=O)N([C@@H](C)CO)C[C@@H]2C)cc1 | inactive |
| COC(=O)[C@@H]1[C@@H](CO)[C@@H]2Cn3c(cccc3=O)[C@@H]2N1C(=O)C1CC1 | inactive |
| NC[C@@H](O)C1CCCCC1 | inactive |
| C[C@@H]1CN([C@@H](C)CO)C(=O)Cc2cc(NS(=O)(=O)c3cn(C)cn3)ccc2O[C@@H]1CN(C)S(=O)(=O)c1ccc(Cl)cc1 | inactive |
| C=C[C@](C)(O)CCC=C(C)C | inactive |
| COCC(=O)N1C[C@H](C)[C@@H](OC)CN(C)C(=O)c2cc(NC(=O)Nc3ccccc3)ccc2OC[C@@H]1C | inactive |
| COc1ccc(CN(C)C[C@H]2OCCCC[C@H](C)Oc3ccc(NC(=O)CCC(F)(F)F)cc3C(=O)N([C@@H](C)CO)C[C@H]2C)cc1 | inactive |
| COc1ccc(C(=O)Nc2ccc3c(c2)C(=O)N(C)[C@H]2CC[C@H](CC(=O)NCC4CC4)O[C@@H]2CO3)cc1 | inactive |
| C[C@@H]1CN([C@@H](C)CO)C(=O)c2cccc(NC(=O)Nc3ccc4c(c3)OCO4)c2O[C@H]1CN(C)Cc1ccc(Oc2ccccc2)cc1 | inactive |
| C[C@H](CO)N1C[C@H](C)[C@@H](CN(C)S(=O)(=O)c2ccc(Cl)cc2)OCCCC[C@H](C)Oc2ccc(NC(=O)Nc3ccccc3)cc2C1=O | inactive |
| COCC1=C(C(=O)OC(C)OC(=O)OC(C)C)N2C(=O)C(NC(=O)C(=NOC)c3csc(N)n3)C2SC1 (stereo unspecified) | inactive |
| CCCCOc1cc(C(=O)NCCN(CC)CC)c2ccccc2n1.Cl | inactive |
| COc1ccc(/C=C2/NC(=O)NC2=O)cc1 | inactive |
| O=C(C[C@H]1CC[C@H]2[C@@H](COC[C@H](O)CN2Cc2cc(F)ccc2F)O1)N[C@@H]1CCN(Cc2ccccc2)C1 | inactive |
| COc1ccc(NC(=O)Nc2cccc3c2O[C@@H](CN(C)Cc2ccc(-c4ccccc4)cc2)[C@H](C)CN([C@@H](C)CO)C3=O)cc1 | inactive |

| Compound | cytotoxicity call |
| --- | --- |
| C[C@@H]1CN([C@@H](C)CO)C(=O)c2cc(NC(=O)Nc3ccc(C(F)(F)F)cc3)ccc2O[C@H]1CN(C)C(=O)Nc1ccc(C(F)(F)F)cc1 | inactive |
| C=CC[C@H](CC(=O)NCCO)C(=O)NC[C@@H](OC(=O)[C@@H](CC=C)CC(=O)OC(C)(C)C)c1ccccc1 | inactive |
| COc1ccc(NC(=O)Nc2ccc3c(c2)C(=O)N([C@H](C)CO)C[C@H](C)[C@H](CN(C)Cc2ccc(C(F)(F)F)cc2)OCCCC[C@H](C)O3)cc1 | inactive |
| C[C@@H]1CN([C@@H](C)CO)C(=O)c2cccc(NC(=O)c3ccc(-c4nccs4)cc3)c2O[C@@H]1CN(C)Cc1ccc(Oc2ccccc2)cc1 | inactive |
| N[C@H]1CCC[C@@H]1Cc1ccc(F)cc1 | inactive |
| Cn1c(=O)c2[nH]c(C3CCCC3)nc2n(C)c1=O | inactive |
| CO[C@H]1CN(C)C(=O)c2cc(NS(=O)(=O)CC(F)(F)F)ccc2OC[C@H](C)N(Cc2ccccn2)C[C@@H]1C | inactive |
| C[C@H]1CCCCO[C@@H](CN(C)S(=O)(=O)c2ccc(F)cc2)[C@@H](C)CN([C@@H](C)CO)C(=O)c2cc(NC(=O)Nc3ccc(F)cc3)ccc2O1 | inactive |
| C[C@@H]1CN([C@H](C)CO)C(=O)Cc2cc(NS(=O)(=O)c3ccccc3)ccc2O[C@@H]1CN(C)S(C)(=O)=O | inactive |
| CCCC#Cc1ccc2c(c1)O[C@@H](CN(C)S(=O)(=O)c1cccc(OC)c1)[C@@H](C)CN([C@@H](C)CO)S2(=O)=O | inactive |
| C[C@@H]1CN([C@@H](C)CO)C(=O)Cc2cc(NC(=O)CCCN(C)C)ccc2O[C@@H]1CN(C)S(=O)(=O)c1ccc(Cl)cc1 | inactive |
| COc1cccc(S(=O)(=O)Nc2ccc3c(c2)[C@H]2C[C@H](CC(=O)N4CCCCC4)O[C@H](CO)[C@H]2O3)c1 | inactive |
| N=c1c(C(=O)NC[C@H]2CCCO2)cc2c(=O)n3ccccc3nc2n1CCCN1CCOCC1 | inactive |
| COc1cc(F)c(C(C)C)cc1-c1ccc(C(F)(F)F)cc1CN1C(=O)O[C@H](c2cc(C(F)(F)F)cc(C(F)(F)F)c2)[C@@H]1C | inactive |
| Cc1noc(C)c1S(=O)(=O)Nc1ccc2c(c1)C(=O)N([C@H](C)CO)C[C@H](C)[C@H](CN(C)C(=O)Nc1ccccc1)O2 | inactive |
